Data published in PubChem BioAssay AID588855 (National Center for Advancing Translational Sciences (NCATS), 2011).
The whole screen tested about 410,000 compounds, of which about 5,000 (1.2%) were called active. This list was built around the results that the source calls inconclusive (neither active nor inactive); the mix of calls is not that of the screen. Calls come from the whole dose curve; as a rule, active = well fitted inhibition curve with a large enough effect; inconclusive = small, poorly fitted or top-dose-only effect; inactive = no such curve, though single readings can be large or run the other way. Potencies of inconclusive entries are doubtful fits and often do not repeat.

Test: qHTS for Inhibitors of TGF-b; note: nearly all actives have a fitted effect of over 65% in size
Conditions: HepG2 CAGA-GFP TGF-b/SMAD3 reporter, GFP fluorescence, 18 h, TGF-beta stimulated, 500 pg/mL final; series mostly up to 46.1 µM
Procedure, shortened: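 HEPG2 CAGA-GFP, 1000 cells/well; 2 h settle, 37 C; cpd via pin tool; TGF-b 500 pg/mL final; 18 h, 37 C; GFP imaging ex488/em500-530; %Activity normalised to -TGF-b and +DMSO controls; CRC fit, curve class.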
Potency is the fitted concentration of half-maximal effect; tags give direction and shape of the fitted curve.

SMILES | Potency
CN1CN(c2ccccc2)C2(CCN(CCCSc3ccccc3NC(=O)/C=C/c3ccccc3)CC2)C1=O | inconclusive: 12.6 µM [inhibitor, partial curve, poor fit]
CCc1cc(-c2cnnn2Cc2ccc3ccccc3c2)ccc1-c1cn(CC(C)C)nn1 | inconclusive: 5.62 µM [inhibitor, partial curve, poor fit]
Cc1ncoc1C(=O)NCC1=C(c2ccc3ccccc3c2)C[C@@H]2CC[C@H]1N2Cc1ccco1 | inactive
CC(C)(C)c1ccc(CN2C(=O)CN=C(c3ccccc3)c3ccccc32)cc1 | active: 11.2 µM
O=[N+]([O-])c1ccccc1CN1CC=C(c2ccc(F)cc2)CC1 | inconclusive: 11.2 µM [inhibitor, partial curve, poor fit]
CCN(CC)CCNCC(=O)Nc1ccc(Cl)cc1C(=O)c1ccccc1 | inactive
Cc1ccsc1C(=O)C1CCCN(Cc2cc(C(C)C)n[nH]2)C1 (stereo unspecified) | inactive
Cc1cccc(-n2c(O)c(C=NC34CN5CN(CN(C5)C3)C4)c(=O)[nH]c2=O)c1 | inactive
O=C(O)C1C2c3ccccc3C(O)C1(C(=O)O)c1ccccc12 (stereo unspecified) | inactive
O=c1[nH]c2ccccc2n1C1CCN(C(c2cccc3ccccc23)c2nnnn2Cc2ccccc2)CC1 (stereo unspecified) | active: 15.8 µM
O=C1CN=C(c2ccc(Br)cc2)c2c(sc3c2CCCC3)N1CCN1CCCCC1 | inconclusive: 35.5 µM [inhibitor, single point]
O=C(CSC1c2ccccc2-c2ccccc21)N/N=C/c1ccccc1 | inconclusive: 22.4 µM [inhibitor, partial curve, poor fit]
Cc1oc(-c2ccccc2)nc1CN1C(=O)CN=C(c2ccccc2)c2ccccc21 | inactive
Cn1c(O)c(C=Nc2ccccc2)c(=O)n(C)c1=O | inactive
O=C(c1ccccc1)C(CN1CCCC1)c1ccccc1 (stereo unspecified) | inconclusive: 2.51 µM [inhibitor, full curve, poor fit]
O=C(c1cn(Cc2ccccc2F)c2ncccc12)C(F)(F)F | inconclusive: 6.31 µM [inhibitor, full curve]
Fc1ccccc1CCNCc1cccc(Cl)c1Cl | inconclusive: 15.8 µM [inhibitor, single point]
CS(=O)(=O)CCN1CC2CCCC(C2)C1 | inconclusive: 31.6 µM [inhibitor, single point]
O=C(c1ccc2c3c(cccc13)CC2)C1CCCN(CC2CC2)C1 (stereo unspecified) | inactive
CN1CCN(C(=O)COc2ccc(-c3nc4ccccc4s3)cc2)CC1 | inactive
C[C@@H]1O[C@@H](O[C@H]2C[C@@H](O)[C@]3(CO)[C@H]4[C@H](O)C[C@]5(C)[C@@H](C6=CC(=O)OC6)CC[C@]5(O)[C@@H]4CC[C@]3(O)C2)[C@H](O)[C@H](O)[C@H]1O | active: 0.708 µM
